# Reference: patent US12559574B2 (National Health Research Institutes, priority 2019, dated 2026)
# B1: VH3+VL3: humanized 6G10F6 antibody, VH3 SEQ ID NO: 11, VL3 SEQ ID NO: 16 (antibody)
# heavy: MGWSCIILFLVATATGVHSQVQLQESGPGLVKPSQTLSLTCTVSGYSITSDYAWNWFRQPPGKKLEWMGYTSYSGSTSYNPSLKSRVTISRDTSKNQISLKLSSVTAADTATYYCAREVTTFGYFDYWGQGTLVTVSSASTKGPSVFPLAPCSRSTSESTAALGCLVKDYFPEPVTVSWNSGALTSGVHTFPAVLQSSGLYSLSSVVTVPSSSLGTKTYTCNVDHKPSNTKVDKRV[letters of human IgG4 Fc left out]
# light: MGWSCIILFLVATATGVHSQTVVTQEPSLTVSPGGTVTLTCRSSTGAVTTSNYANWFQQKPGQAPRGLIGGTSNRAPGVPARFSGSLLGDKAALTLSGVQPEDEAEYFCALWYSTHYVFGTGTKVTVLGQPKAAPSVTLFPPSSEELQANKATLVCLISDFYPGAVTVAWKADSSPVKAGVETTTPSKQSNNKYAASSYLSLTPEQWKSHRSYSCQVTHEGSTVEKTVAPTECS
# modifications: VH3 of the humanized 6G10F6 antibody; VL3 of the humanized 6G10F6 antibody
# B2: VH4+VL2: humanized 6G10F6 antibody, VH4 SEQ ID NO: 12, VL2 SEQ ID NO: 15 (antibody)
# heavy: B1 heavy with R91V, I98F, T112V
# light: B1 light with G78W, V79T, D90G
# modifications: VH4 of the humanized 6G10F6 antibody; VL2 of the humanized 6G10F6 antibody
# B3: VH4+VL3: humanized 6G10F6 antibody, VH4 SEQ ID NO: 12, VL3 SEQ ID NO: 16 (antibody)
# heavy: B1 heavy with R91V, I98F, T112V
# light: B1 light
# modifications: VH4 of the humanized 6G10F6 antibody; VL3 of the humanized 6G10F6 antibody
# Biological target: BSA-Succinic acid (Bos taurus, UniProt P02769)
# Experiment: SPR (Biacore 8K) affinity measurement
# Assay type: binding
# Details: purified IgG, 1:1 interaction model
# Procedure: To construct and produce the chimeric 6G10F6 antibody and humanized antibody, the DNA sequences encoding humanized IgG heavy and light chains are synthesized and inserted into pCDNA3.4 vector to construct the expression plasmids of full-length IgGs (as shown in FIG. 11). Forty humanized antibodies are expressed in HEK293 cell culture, and then the cells are spun down. The supernatants are conducted for expression evaluation by ELISA. Binding confirmation and affinity ranking are tested by Surface Plasmon Resonance (SPR) using Biacore 8K. […] And the primary antibodies are goat anti-human IgG-HRP (GenScript, Cat. No. A00166) and goat anti-human Lambda-HRP (SouthernBiotech, Cat. No. 2070-05) respectively. The affinity and kinetics of chimeric antibody to BSA-Succinic acid is summarized in FIG. 12B, and the sensor-grams are shown in FIG. 12C. Express antibodies plus the parental antibody are performed for affinity ranking. The clones without binding with the target are highlight in grey color.
# Based on the affinity ranking results, top 3 humanized antibodies (VH3+VL3, VH4+VL2, VH4+VL3) are expressed and purified according to GenScript's SOP. Evaluating from the SDS-PAGE, the purity of humanized IgGs are about 85% (FIG. 14A). The top 3 purified antibodies are further selected for affinity measurement under different concentrations. Binding data of each antibody is processed and fitted to 1:1 interaction model using Biacore 8K evaluation software. All experimental data could be well fitted to the model (FIG. 15A).
# Sequence of BSA-Succinic acid (P02769 25-607): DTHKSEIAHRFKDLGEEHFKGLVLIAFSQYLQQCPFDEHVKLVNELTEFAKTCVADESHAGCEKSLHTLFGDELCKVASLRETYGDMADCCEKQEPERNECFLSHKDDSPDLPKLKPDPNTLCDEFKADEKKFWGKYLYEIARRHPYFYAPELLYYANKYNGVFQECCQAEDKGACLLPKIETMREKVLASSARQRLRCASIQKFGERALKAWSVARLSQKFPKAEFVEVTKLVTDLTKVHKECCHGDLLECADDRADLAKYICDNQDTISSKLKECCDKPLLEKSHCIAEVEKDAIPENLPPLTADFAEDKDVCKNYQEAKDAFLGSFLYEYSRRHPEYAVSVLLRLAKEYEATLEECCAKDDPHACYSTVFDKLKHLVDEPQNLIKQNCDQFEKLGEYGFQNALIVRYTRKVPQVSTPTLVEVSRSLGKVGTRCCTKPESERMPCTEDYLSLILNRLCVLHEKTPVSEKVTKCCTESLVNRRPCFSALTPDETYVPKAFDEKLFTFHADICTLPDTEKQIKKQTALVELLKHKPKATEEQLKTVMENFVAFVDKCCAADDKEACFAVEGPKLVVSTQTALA
row,Molecule,antigen-binding affinities
1,B1,retain comparable antigen-binding affinities to the parent chimeric antibody
2,B2,retain comparable antigen-binding affinities to the parent chimeric antibody
3,B3,retain comparable antigen-binding affinities to the parent chimeric antibody

# Tested on: not listed separately
# Experiment: thermo-stability evaluation by ELISA
# Assay type: physicochemical
# Details: −80° C., 4° C., 25° C., 40° C., 2 months
# Procedure: All antibodies are treated for one month up to two months at −80° C., 4° C., 25° C., and 40° C.
# In addition, four purified antibodies (including chimeric antibody, VH3+VL3, VH4+VL2, VH4+VL3 humanilized antibodies) and nine supernatants form HEK293 cells expressing each humanized were selected for stability evaluation by ELISA.
row,Molecule,binding to antigen after temperature treatments
1,B1,bound to antigen strongly
2,B2,bound to antigen strongly
3,B3,bound to antigen strongly

# Substitutions are numbered along the chain they refer to.
